The EC50 is the midpoint of the concentration-response curve. Low readings indicate a more potent agent, high ones a less potent agent. The term IC50 denotes the concentration needed to halve the response being measured. The low end stands for greater potency in that assay, the high end for weaker potency in that assay. As usually defined, the microsomal CLint is the capacity of the preparation to metabolise the compound, expressed as a volume cleared per time. As a reminder, the half-life is the time needed for the level to fall by half in the phase considered. For orientation: Ki means a measure of affinity in units of concentration, obtained from inhibition or displacement.

Some results are limits rather than exact numbers.

The target of the first data set is T1, 5-HT2A receptor (Homo sapiens (Human), UniProt P28223). Nature of the data set: cell-based.
Details: not given
On to `CCCc1cc(OC)c(CCNCc2ccccc2F)cc1OC` [Compound 58, 2-(2,5-dimethoxy-4-propylphenyl)-N-(2-fluorobenzyl)ethanamine], for which the “5-HT2A % Act @ Max Conc.” value worked out at 95.2%.

As for `COc1cc(CC(C)NCc2cccc3c2OCO3)c(OC)cc1C#N` (stereo not shown) [Compound 60, 4-(2-((benzo[d][1,3]dioxol-4-ylmethyl)amino)propyl)-2,5-dimethoxybenzonitrile], the “5-HT2A % Act @ Max Conc.” value came to 95.3%.

Staying with this data set, now noted: 5-HT2A EC50 (nM).
In turn, `CCCc1cc(OC)c(CCNCc2ccccc2F)cc1OC` [Compound 58, 2-(2,5-dimethoxy-4-propylphenyl)-N-(2-fluorobenzyl)ethanamine] came in with an EC50 of 8.82 nM. This lies in the single-digit nanomolar range.

The compound `COc1cc(CC(C)NCc2cccc3c2OCO3)c(OC)cc1C#N` (stereo not shown) [Compound 60, 4-(2-((benzo[d][1,3]dioxol-4-ylmethyl)amino)propyl)-2,5-dimethoxybenzonitrile] had an EC50 of 111 nM.

A further data set addresses 5-HT2B receptor (Homo sapiens (Human), UniProt P41595). Nature of the data set: cell-based. Particulars: Ca2+ flux, agonist.
Chain of UniProt P41595 (P41595 whole entry, looked up): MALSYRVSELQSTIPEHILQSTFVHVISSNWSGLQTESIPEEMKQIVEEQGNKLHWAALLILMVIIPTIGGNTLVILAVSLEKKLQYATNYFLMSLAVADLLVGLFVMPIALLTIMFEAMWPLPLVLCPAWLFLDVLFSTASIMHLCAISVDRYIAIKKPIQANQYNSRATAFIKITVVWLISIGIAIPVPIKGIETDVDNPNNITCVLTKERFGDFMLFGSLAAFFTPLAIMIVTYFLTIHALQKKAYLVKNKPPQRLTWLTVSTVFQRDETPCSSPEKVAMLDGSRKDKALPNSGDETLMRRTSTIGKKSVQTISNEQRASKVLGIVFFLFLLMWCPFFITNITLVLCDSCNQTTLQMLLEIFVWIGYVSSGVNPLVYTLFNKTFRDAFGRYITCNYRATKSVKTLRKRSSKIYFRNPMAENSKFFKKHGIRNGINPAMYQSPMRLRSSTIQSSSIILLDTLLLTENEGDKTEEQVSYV
The compound `CCCc1cc(OC)c(CCNCc2ccccc2F)cc1OC` [Compound 58, 2-(2,5-dimethoxy-4-propylphenyl)-N-(2-fluorobenzyl)ethanamine] returned an EC50 above 10 µM.

In turn, `COc1cc(CC(C)NCc2cccc3c2OCO3)c(OC)cc1C#N` (stereo not shown) [Compound 60, 4-(2-((benzo[d][1,3]dioxol-4-ylmethyl)amino)propyl)-2,5-dimethoxybenzonitrile] yielded an EC50 above 10 µM.

Still in this data set, the particulars now being: Ca2+ flux, at max concentration.
`CCCc1cc(OC)c(CCNCc2ccccc2F)cc1OC` [Compound 58, 2-(2,5-dimethoxy-4-propylphenyl)-N-(2-fluorobenzyl)ethanamine]: the “5-HT2B % Act @ Max Conc.” value was found to be 3.12%.

`COc1cc(CC(C)NCc2cccc3c2OCO3)c(OC)cc1C#N` (stereo not shown) [Compound 60, 4-(2-((benzo[d][1,3]dioxol-4-ylmethyl)amino)propyl)-2,5-dimethoxybenzonitrile]: the “5-HT2B % Act @ Max Conc.” value is given as −0.27%.

Another data set deals with CYP1A2 (Homo sapiens (Human), UniProt P05177). Nature of the data set: biochemical. Particulars: CYP 1A2 (IC50, μM), HLM, phenacetin substrate.
Chain of UniProt P05177 (P05177 whole entry, looked up): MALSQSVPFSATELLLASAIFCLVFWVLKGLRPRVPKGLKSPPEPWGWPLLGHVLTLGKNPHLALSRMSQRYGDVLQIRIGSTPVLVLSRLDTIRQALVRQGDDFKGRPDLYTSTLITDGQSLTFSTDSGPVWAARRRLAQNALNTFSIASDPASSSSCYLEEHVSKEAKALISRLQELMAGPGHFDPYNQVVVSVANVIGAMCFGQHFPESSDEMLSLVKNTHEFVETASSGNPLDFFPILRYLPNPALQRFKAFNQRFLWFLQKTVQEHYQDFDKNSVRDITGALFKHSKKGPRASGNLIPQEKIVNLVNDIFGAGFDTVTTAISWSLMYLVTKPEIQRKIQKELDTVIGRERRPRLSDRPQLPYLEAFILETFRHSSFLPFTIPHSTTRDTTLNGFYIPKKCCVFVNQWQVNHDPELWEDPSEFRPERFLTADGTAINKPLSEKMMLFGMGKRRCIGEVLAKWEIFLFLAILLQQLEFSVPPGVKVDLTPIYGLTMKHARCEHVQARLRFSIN
Compound `CCCc1cc(OC)c(CCNCc2ccccc2F)cc1OC` [Compound 58, 2-(2,5-dimethoxy-4-propylphenyl)-N-(2-fluorobenzyl)ethanamine] came in with an IC50 of 14 µM.

`COc1cc(CC(C)NCc2cccc3c2OCO3)c(OC)cc1C#N` (stereo not shown) [Compound 60, 4-(2-((benzo[d][1,3]dioxol-4-ylmethyl)amino)propyl)-2,5-dimethoxybenzonitrile]: the midpoint of inhibition, the IC50, lay at 8.4 µM.

The target of the next data set is human 5-HT2C receptor (Homo sapiens (Human), UniProt P28335). As to the kind of experiment: cell-based.
Details: not given
For the compound `CCCc1cc(OC)c(CCNCc2ccccc2F)cc1OC` [Compound 58, 2-(2,5-dimethoxy-4-propylphenyl)-N-(2-fluorobenzyl)ethanamine], the “5-HT2C % Act @ Max Conc.” value was 79.2%.

For the compound `COc1cc(CC(C)NCc2cccc3c2OCO3)c(OC)cc1C#N` (stereo not shown) [Compound 60, 4-(2-((benzo[d][1,3]dioxol-4-ylmethyl)amino)propyl)-2,5-dimethoxybenzonitrile], the “5-HT2C % Act @ Max Conc.” value stood at 13.4%.

The data set is the same for the next values; noted with them: 5-HT2C EC50 (nM).
With `CCCc1cc(OC)c(CCNCc2ccccc2F)cc1OC` [Compound 58, 2-(2,5-dimethoxy-4-propylphenyl)-N-(2-fluorobenzyl)ethanamine], the response was half-maximal at 2.17 nM (EC50).

For `COc1cc(CC(C)NCc2cccc3c2OCO3)c(OC)cc1C#N` (stereo not shown) [Compound 60, 4-(2-((benzo[d][1,3]dioxol-4-ylmethyl)amino)propyl)-2,5-dimethoxybenzonitrile], the EC50 was above 10000 nM.

Tested on in the next data set: not listed separately
Nature of the data set: in vitro. Particulars: both, rat, microsomes, pH 7.4, Intrinsic clearance (Clint), rat liver microsomes (RLM), 1 μM test compound, 0.50 mg/mL protein, NADPH. For orientation: Microsomes from liver hold many membrane-bound enzymes, among them those of drug oxidation.
Consider `CCCc1cc(OC)c(CCNCc2ccccc2F)cc1OC` [Compound 58, 2-(2,5-dimethoxy-4-propylphenyl)-N-(2-fluorobenzyl)ethanamine], for which the microsomal CLint came out at 684 µL/min/mg.

Turning to `COc1cc(CC(C)NCc2cccc3c2OCO3)c(OC)cc1C#N` (stereo not shown) [Compound 60, 4-(2-((benzo[d][1,3]dioxol-4-ylmethyl)amino)propyl)-2,5-dimethoxybenzonitrile], the intrinsic metabolic clearance (microsomal CLint) worked out at 967 µL/min/mg.

Still in this data set, the particulars now being: both, rat, microsomes, pH 7.4, half-life (t1/2), rat liver microsomes (RLM), 1 μM test compound, 0.50 mg/mL protein, NADPH.
On to `CCCc1cc(OC)c(CCNCc2ccccc2F)cc1OC` [Compound 58, 2-(2,5-dimethoxy-4-propylphenyl)-N-(2-fluorobenzyl)ethanamine], for which the half-life turned out to be 2.03 min.

Turning to `COc1cc(CC(C)NCc2cccc3c2OCO3)c(OC)cc1C#N` (stereo not shown) [Compound 60, 4-(2-((benzo[d][1,3]dioxol-4-ylmethyl)amino)propyl)-2,5-dimethoxybenzonitrile], the half-life was 1.4 min.

In another data set the target is CYP2C9 (Homo sapiens (Human), UniProt P11712). As to the kind of experiment: biochemical. The note with it: CYP 2C9 (IC50, μM), HLM, diclofenac substrate.
Chain of UniProt P11712 (P11712 whole entry, looked up): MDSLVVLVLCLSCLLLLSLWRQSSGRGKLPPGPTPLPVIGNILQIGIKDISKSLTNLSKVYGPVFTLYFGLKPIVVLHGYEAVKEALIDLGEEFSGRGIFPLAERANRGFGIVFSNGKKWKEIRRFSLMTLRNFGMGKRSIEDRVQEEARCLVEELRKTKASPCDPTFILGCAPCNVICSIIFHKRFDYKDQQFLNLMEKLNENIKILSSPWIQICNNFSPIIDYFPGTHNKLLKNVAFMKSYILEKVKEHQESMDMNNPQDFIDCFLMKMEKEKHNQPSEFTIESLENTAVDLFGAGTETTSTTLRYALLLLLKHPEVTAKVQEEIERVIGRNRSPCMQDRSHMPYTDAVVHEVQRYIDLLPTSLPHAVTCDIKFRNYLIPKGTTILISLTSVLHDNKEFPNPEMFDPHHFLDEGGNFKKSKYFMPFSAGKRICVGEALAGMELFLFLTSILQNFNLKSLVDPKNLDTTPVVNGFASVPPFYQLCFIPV
As for `CCCc1cc(OC)c(CCNCc2ccccc2F)cc1OC` [Compound 58, 2-(2,5-dimethoxy-4-propylphenyl)-N-(2-fluorobenzyl)ethanamine], the IC50 worked out at 32.3 µM.

Consider `COc1cc(CC(C)NCc2cccc3c2OCO3)c(OC)cc1C#N` (stereo not shown) [Compound 60, 4-(2-((benzo[d][1,3]dioxol-4-ylmethyl)amino)propyl)-2,5-dimethoxybenzonitrile], for which it took 15.8 µM to reach half-maximal inhibition (IC50). This IC50 is about 2-fold lower than that of the compound before.

For the next data set, the target named is T1, 5-HT2A receptor.
Assay: not given
The class given is binding. Particulars: read-out: Ki at 5-HT2A Receptor (nM) ([^3H]ketanserin).
`CCCc1cc(OC)c(CCNCc2ccccc2F)cc1OC` [Compound 58, 2-(2,5-dimethoxy-4-propylphenyl)-N-(2-fluorobenzyl)ethanamine]: the Ki is 1.35 nM.

On to `COc1cc(CC(C)NCc2cccc3c2OCO3)c(OC)cc1C#N` (stereo not shown) [Compound 60, 4-(2-((benzo[d][1,3]dioxol-4-ylmethyl)amino)propyl)-2,5-dimethoxybenzonitrile], for which the Ki amounted to 126 nM.

The next data set addresses CYP2C19 (Homo sapiens (Human), UniProt P33261). Nature of the data set: biochemical. Particulars: CYP 2C19 (IC50, μM), HLM, (S)-mephenytoin substrate.
Chain of UniProt P33261 (P33261 whole entry, looked up): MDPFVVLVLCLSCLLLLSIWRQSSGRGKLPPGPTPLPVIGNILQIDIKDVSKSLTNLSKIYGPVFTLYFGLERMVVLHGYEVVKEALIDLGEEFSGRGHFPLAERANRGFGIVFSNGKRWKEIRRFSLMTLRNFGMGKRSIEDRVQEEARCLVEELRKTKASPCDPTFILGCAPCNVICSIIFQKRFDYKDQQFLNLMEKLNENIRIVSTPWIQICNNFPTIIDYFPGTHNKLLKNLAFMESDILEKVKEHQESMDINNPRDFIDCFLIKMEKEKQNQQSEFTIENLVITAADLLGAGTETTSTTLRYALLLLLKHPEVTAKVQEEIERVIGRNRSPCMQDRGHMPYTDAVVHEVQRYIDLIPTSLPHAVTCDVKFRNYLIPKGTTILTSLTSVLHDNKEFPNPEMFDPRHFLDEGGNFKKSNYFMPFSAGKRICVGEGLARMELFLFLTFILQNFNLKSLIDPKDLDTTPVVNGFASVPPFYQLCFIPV
Turning to `CCCc1cc(OC)c(CCNCc2ccccc2F)cc1OC` [Compound 58, 2-(2,5-dimethoxy-4-propylphenyl)-N-(2-fluorobenzyl)ethanamine], the IC50 was determined as 0.303 µM.

On to `COc1cc(CC(C)NCc2cccc3c2OCO3)c(OC)cc1C#N` (stereo not shown) [Compound 60, 4-(2-((benzo[d][1,3]dioxol-4-ylmethyl)amino)propyl)-2,5-dimethoxybenzonitrile], for which 4.4 µM corresponded to half-maximal inhibition (IC50).

Tested on in a further data set: not listed separately
Nature of the data set: in vitro. The note with it: CD-1, mouse, microsomes, pH 7.4, Clint (μL/min/mg), MLM, 1 μM.
On to `CCCc1cc(OC)c(CCNCc2ccccc2F)cc1OC` [Compound 58, 2-(2,5-dimethoxy-4-propylphenyl)-N-(2-fluorobenzyl)ethanamine], for which the microsomal CLint turned out to be 1700 µL/min/mg.

Turning to `COc1cc(CC(C)NCc2cccc3c2OCO3)c(OC)cc1C#N` (stereo not shown) [Compound 60, 4-(2-((benzo[d][1,3]dioxol-4-ylmethyl)amino)propyl)-2,5-dimethoxybenzonitrile], the microsomal CLint worked out at 958 µL/min/mg.

The data set is the same for the next values; noted with them: CD-1, mouse, microsomes, pH 7.4, t1/2 (min), MLM, 1 μM.
For `CCCc1cc(OC)c(CCNCc2ccccc2F)cc1OC` [Compound 58, 2-(2,5-dimethoxy-4-propylphenyl)-N-(2-fluorobenzyl)ethanamine], the half-life is 0.817 min.

With `COc1cc(CC(C)NCc2cccc3c2OCO3)c(OC)cc1C#N` (stereo not shown) [Compound 60, 4-(2-((benzo[d][1,3]dioxol-4-ylmethyl)amino)propyl)-2,5-dimethoxybenzonitrile], the half-life was found to be 1.4 min.

Tested on in a further data set: not listed separately
As to the kind of experiment: in vitro. Particulars: both, human, microsomes, pH 7.4, Clint (μL/min/mg), HLM, 1 μM.
On to `CCCc1cc(OC)c(CCNCc2ccccc2F)cc1OC` [Compound 58, 2-(2,5-dimethoxy-4-propylphenyl)-N-(2-fluorobenzyl)ethanamine], for which the intrinsic metabolic clearance (microsomal CLint) was 184 µL/min/mg.

On to `COc1cc(CC(C)NCc2cccc3c2OCO3)c(OC)cc1C#N` (stereo not shown) [Compound 60, 4-(2-((benzo[d][1,3]dioxol-4-ylmethyl)amino)propyl)-2,5-dimethoxybenzonitrile], for which the microsomal CLint worked out at 204 µL/min/mg.

The data set is the same for the next values; noted with them: both, human, microsomes, pH 7.4, t1/2 (min), HLM, 1 μM.
For `CCCc1cc(OC)c(CCNCc2ccccc2F)cc1OC` [Compound 58, 2-(2,5-dimethoxy-4-propylphenyl)-N-(2-fluorobenzyl)ethanamine], the half-life was determined as 7.51 min.

With `COc1cc(CC(C)NCc2cccc3c2OCO3)c(OC)cc1C#N` (stereo not shown) [Compound 60, 4-(2-((benzo[d][1,3]dioxol-4-ylmethyl)amino)propyl)-2,5-dimethoxybenzonitrile], the half-life amounted to 6.8 min.

For another data set, the target named is CYP2D6 (Homo sapiens (Human), UniProt P10635). As to the kind of experiment: biochemical. The note with it: CYP 2D6 (IC50, μM), HLM, dextromethorphan substrate.
Chain of UniProt P10635 (P10635 whole entry, looked up): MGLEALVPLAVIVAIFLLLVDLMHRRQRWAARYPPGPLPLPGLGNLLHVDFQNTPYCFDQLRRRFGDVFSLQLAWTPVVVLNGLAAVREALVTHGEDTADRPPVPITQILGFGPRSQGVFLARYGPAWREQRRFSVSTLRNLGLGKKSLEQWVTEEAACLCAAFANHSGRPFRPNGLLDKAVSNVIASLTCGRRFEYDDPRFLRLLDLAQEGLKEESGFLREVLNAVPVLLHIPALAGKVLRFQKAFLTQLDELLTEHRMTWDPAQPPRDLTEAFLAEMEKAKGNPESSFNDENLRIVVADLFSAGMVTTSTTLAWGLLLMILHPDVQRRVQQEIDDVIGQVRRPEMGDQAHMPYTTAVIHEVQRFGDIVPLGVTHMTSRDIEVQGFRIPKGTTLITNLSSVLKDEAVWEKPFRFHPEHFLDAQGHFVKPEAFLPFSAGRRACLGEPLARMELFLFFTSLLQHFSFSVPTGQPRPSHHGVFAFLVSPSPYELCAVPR
The compound `CCCc1cc(OC)c(CCNCc2ccccc2F)cc1OC` [Compound 58, 2-(2,5-dimethoxy-4-propylphenyl)-N-(2-fluorobenzyl)ethanamine] yielded an IC50 of 0.102 µM.

Regarding `COc1cc(CC(C)NCc2cccc3c2OCO3)c(OC)cc1C#N` (stereo not shown) [Compound 60, 4-(2-((benzo[d][1,3]dioxol-4-ylmethyl)amino)propyl)-2,5-dimethoxybenzonitrile], 0.372 µM corresponded to half-maximal inhibition (IC50).

For a further data set, the target named is CYP3A4 (Homo sapiens (Human), UniProt P08684). As to the kind of experiment: biochemical. Particulars: CYP 3A4 (IC50, μM), HLM, midazolam substrate.
Chain of UniProt P08684 (P08684 whole entry, looked up): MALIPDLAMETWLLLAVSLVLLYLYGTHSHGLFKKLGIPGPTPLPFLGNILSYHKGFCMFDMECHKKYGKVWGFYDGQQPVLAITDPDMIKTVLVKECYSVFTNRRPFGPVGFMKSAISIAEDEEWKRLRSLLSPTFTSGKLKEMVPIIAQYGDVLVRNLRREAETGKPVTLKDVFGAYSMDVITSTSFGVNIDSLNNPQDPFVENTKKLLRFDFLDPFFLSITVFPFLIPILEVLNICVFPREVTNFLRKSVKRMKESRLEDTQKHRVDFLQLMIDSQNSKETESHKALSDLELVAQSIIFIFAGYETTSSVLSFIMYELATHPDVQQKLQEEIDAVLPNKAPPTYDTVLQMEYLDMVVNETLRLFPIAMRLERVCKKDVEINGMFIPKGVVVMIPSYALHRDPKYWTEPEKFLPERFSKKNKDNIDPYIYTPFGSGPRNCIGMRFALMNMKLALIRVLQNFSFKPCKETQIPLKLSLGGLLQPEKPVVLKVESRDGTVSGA
Turning to `CCCc1cc(OC)c(CCNCc2ccccc2F)cc1OC` [Compound 58, 2-(2,5-dimethoxy-4-propylphenyl)-N-(2-fluorobenzyl)ethanamine], the half-inhibitory concentration (IC50) amounted to 5.65 µM. This lies in the single-digit micromolar range.

With `COc1cc(CC(C)NCc2cccc3c2OCO3)c(OC)cc1C#N` (stereo not shown) [Compound 60, 4-(2-((benzo[d][1,3]dioxol-4-ylmethyl)amino)propyl)-2,5-dimethoxybenzonitrile], half-maximal inhibition (IC50) was put at 1.53 µM.

The next data set concerns the target 5-HT1A receptor (Homo sapiens (Human), UniProt P08908). As to the kind of experiment: cell-based.
Details: not given
With `CCCc1cc(OC)c(CCNCc2ccccc2F)cc1OC` [Compound 58, 2-(2,5-dimethoxy-4-propylphenyl)-N-(2-fluorobenzyl)ethanamine], the “5-HT1A % Act @ Max Conc.” value is listed as 99.2%.

For `COc1cc(CC(C)NCc2cccc3c2OCO3)c(OC)cc1C#N` (stereo not shown) [Compound 60, 4-(2-((benzo[d][1,3]dioxol-4-ylmethyl)amino)propyl)-2,5-dimethoxybenzonitrile], the “5-HT1A % Act @ Max Conc.” value amounted to 7.14%.

Still in this data set, the particulars now being: 5-HT1A EC50 (nM).
`CCCc1cc(OC)c(CCNCc2ccccc2F)cc1OC` [Compound 58, 2-(2,5-dimethoxy-4-propylphenyl)-N-(2-fluorobenzyl)ethanamine] returned an EC50 of 40400 nM. In other words, the double-digit micromolar range.

`COc1cc(CC(C)NCc2cccc3c2OCO3)c(OC)cc1C#N` (stereo not shown) [Compound 60, 4-(2-((benzo[d][1,3]dioxol-4-ylmethyl)amino)propyl)-2,5-dimethoxybenzonitrile] gave a concentration giving a half-maximal response (EC50) above 10000 nM.
